Measured values from PubChem BioAssay AID686971 (National Center for Advancing Translational Sciences (NCATS), 2013).
Among all 360,000 compounds or so, about 7,500 (2.1%) were called active. Inconclusive results, whose numbers are uncertain, are shown with a selection of clear calls. Calls come from the whole dose curve; as a rule, active = well fitted cell-killing curve with a large enough effect; inconclusive = small, poorly fitted or top-dose-only effect, or effect the other way, or another doubt; inactive = no such curve, though single readings can be large or run the other way. No potency is given beside an inconclusive call; the fits are too rough.

test: qHTS for induction of synthetic lethality in tumor cells producing 2HG: qHTS for the HT-1080-IDH1KD cell line; conditions: HT-1080 IDH1 knockdown viability, ATP luminescence, 48 h; activity, negative = toxicity: at 46.1 µM (top of the series) unless noted;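 for activity, negative = toxicity: 0% = DMSO wells and -100% = cell-free medium wells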
Summary of the method: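 CellTiter-Glo luminescence after 48 h compound exposure at 37 degrees C of IDH1-knockdown HT-1080 cells in 5% FBS RPMI. %Activity scaled between DMSO wells and cell-free media wells, with curves fitted and assigned curve classes.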
Potency is the fitted concentration of half-maximal effect; tags give direction and shape of the fitted curve.

| SMILES | Potency | activity, negative = toxicity |
| --- | --- | --- |
| CC(C)(C)NC(=O)C(c1cccc2ccccc12)n1c(=O)c(-c2cc3ccccc3[nH]2)nc2ccccc21 (stereo not drawn) | inconclusive [cytotoxic, partial curve] | – |
| CC(c1ccccc1)N1CCN(C(=O)CCl)CC1 (stereo not drawn) | inactive | – |
| CCOc1ccccc1NC(=O)CN(c1ccc(C)cc1)S(=O)(=O)c1c(C)noc1C | inactive | – |
| O=C(CSc1nc2ccc(Cl)cc2[nH]1)NC1CCCc2ccccc21 (stereo not drawn) | inconclusive [cytotoxic, single point] | – |
| CC1CC(C)CN(C(=O)CCNS(=O)(=O)c2cccs2)C1 (stereo not drawn) | inactive | – |
| Cc1ccc(NC(=O)COC(=O)c2ccccc2Nc2ccccc2)cc1 | inconclusive [cytotoxic, single point] | – |
| O=C(CCSc1nc2ccccc2s1)N/N=C/c1c(O)ccc2ccccc12 | – | inconclusive: -7.99% [cytotoxic] |
| COc1ccc(CNCC(O)(c2ccc(F)cc2)c2ccc(F)cc2)cc1 | inconclusive [cytotoxic, single point] | – |
| CC(=O)Nc1ccc(Nc2nc(Cl)nc(Nc3ccc(NC(C)=O)cc3)n2)cc1 | inconclusive [cytotoxic, full curve, poor fit] | – |
| CC(C)c1cc(Cn2c3ccccc3c(=O)n2C(C)Cn2cc(-c3ccccc3)nn2)on1 (stereo not drawn) | inactive | – |
| O=C(CCl)NCCCN(C(=O)C(Cl)Cl)c1ccc([N+](=O)[O-])cc1 | inconclusive [cytotoxic, partial curve] | – |
| CC(C)N(C(=O)[C@H]1C[C@H](CC(=O)NCc2ccco2)C(=O)N2CCc3c([nH]c4cc(-c5ccco5)ccc34)[C@]12C)C(C)C | inconclusive [cytotoxic, single point] | – |
| O=C1C(Br)=C(c2ccccc2)C(c2ccccc2)=C1c1ccccc1 | inconclusive [cytotoxic, partial curve] | – |
| COc1cccc2cc(C(=O)C3=C(O)C(=O)N(c4cc(C)on4)C3c3cccs3)oc12 (stereo not drawn) | inconclusive [cytotoxic, single point] | – |
| COc1cc(F)cc(C2=CC(=O)C[C@H](c3ccc(F)cc3)C2)c1 | – | inconclusive: -4.44% [cytotoxic] |
| Cc1cc(C(=O)N2CCN(c3ccc([N+](=O)[O-])cc3)CC2)c(C)o1 | inactive | – |
| O=C(CS(=O)(=O)Nc1ccc(F)cc1Cl)Nc1ccc(F)cc1Cl | inactive | – |
| CCOc1ccccc1CN(CCc1ccc2c(c1)OCO2)Cc1ccccn1 | inconclusive [cytotoxic, single point] | – |
| CC(C)Oc1ccc(C(=O)Nc2cc(S(=O)(=O)N3CCOCC3)ccc2N2CCOCC2)cc1 | inconclusive [cytotoxic, partial curve] | – |
| Cc1nn(CC(=O)OCC(=O)NCCc2ccc(S(N)(=O)=O)cc2)c(C)c1[N+](=O)[O-] | inconclusive [rising, single point] | – |
| CC(C)(C)c1ccc(-c2nc(C#N)c(N3CCC(C(N)=O)CC3)o2)cc1 | inconclusive [cytotoxic, single point] | – |
| CC(C)c1ccc(NC(=O)Nc2nc(C(N)c3ccccc3)cs2)cc1 (stereo not drawn) | inconclusive [cytotoxic, single point] | – |
| CCCc1nc2c3ccccc3ccn2c1CC(C)(C)C | inconclusive [cytotoxic, single point] | – |

| SMILES | Potency | activity, negative = toxicity |
| --- | --- | --- |
| COCCNC(=O)C1(C)CCCN(Cc2ccc3ccccc3c2Br)C1 (stereo not drawn) | inconclusive [cytotoxic, single point] | – |
| Nc1c(C(=O)O)cnn1-c1ccc([N+](=O)[O-])cc1 | inconclusive [cytotoxic, single point] | – |
| Cc1cc(/C=C2\SC(=S)N(C)C2=O)c(C)n1-c1ccccc1O | inconclusive [cytotoxic, single point] | – |
| O=C(Nc1ccc2c(c1)OCCO2)C(=O)NC1CC1 | inactive | – |
| CCOc1ccc(CCN2C(=O)C(=O)N([C@@H](CC(C)C)CN3CCC[C@H]3CN3C(=O)C(=O)NC[C@@H]3Cc3ccccc3)C[C@@H]2CC(C)C)cc1 | inactive | – |
| CCn1c(=O)c2cc(C(=O)NCCCOC)sc2c2ccccc21 | inconclusive [cytotoxic, single point] | – |
| CC1CCN(c2ccc(NC(=S)NC(=O)c3ccc(-c4cccc([N+](=O)[O-])c4)o3)cc2)CC1 | active: 6.31 µM | – |
| O=C(NCc1ccco1)c1ccc(=O)[nH]n1 | inconclusive [rising, partial curve] | – |
| CSc1ccc(/C=C(\C#N)C(=O)NC2CCCCC2C)cc1 (stereo not drawn) | inconclusive [cytotoxic, single point] | – |
| CCCCc1nnc(NC(=O)CCS(=O)(=O)c2ccc(Cl)cc2)s1 | inactive | – |
| CC(=O)NCc1ccc(-c2csc(-c3cccs3)n2)cc1 | inconclusive [cytotoxic, single point] | – |
| CN[C@H]1C[C@H]2c3cc(Oc4ccccc4C)ccc3CCN2C(=O)[C@H]1[C@H](C)O | inconclusive [cytotoxic, single point] | – |
| Cc1cc(Br)ccc1OCCCCN1CCC(C)CC1 | inactive | – |
| CCC(c1nnnn1CCOC)N1CCN(c2cccc(C(F)(F)F)c2)CC1 (stereo not drawn) | – | inactive: -13.2% [at 9.24 µM] |
| Cc1cc(C(=O)OCC(=O)NCc2ccco2)c(C)n1-c1ccccc1 | active: 3.66 µM | – |
| Nc1ncnc(Sc2ncccn2)c1[N+](=O)[O-] | active: 16.4 µM | – |
| Cc1ccc(-n2c(C)cc(C(=O)CSc3nncs3)c2C)cc1 | inconclusive [cytotoxic, single point] | – |
| CCc1ccc(C(=O)Nc2nc(C)cs2)s1 | inconclusive [cytotoxic, full curve] | – |
| Cc1ccc(S(=O)(=O)N2CCC(C(=O)NCCN3CCOCC3)CC2)cc1 | inactive | – |
| COc1ccc(NC(=O)C2Cc3c(-c4ccccc4Oc4ccccc4)ccnc3O2)cc1OC (stereo not drawn) | inconclusive [cytotoxic, partial curve] | – |
| C=CCc1cccc(CNc2nc3ccccc3n2CCC)c1O | inconclusive [cytotoxic, single point] | – |
| O=C(Nc1ccc(O)cc1)c1cc2ccccc2c(=O)s1 | inconclusive [cytotoxic, single point] | – |
| NC(CC(=O)NC(c1ccccc1)(c1ccccc1)c1ccccc1)C(=O)O (stereo not drawn) | inactive | – |

| SMILES | Potency | activity, negative = toxicity |
| --- | --- | --- |
| CCOc1cc(CNc2cccc3ccccc23)cc(Br)c1OCC(=O)NC(C)(C)C | inconclusive [cytotoxic, single point] | – |
| CCOC(=O)c1cc(C)sc1NC(=O)C1CCC1 | inconclusive [cytotoxic, single point] | – |
| CC(C)N1C(=O)/C(=C\c2nc3ccccc3c(=O)n2-c2ccccc2)c2ccccc21 | inconclusive [cytotoxic, single point] | – |
| C=CCN(c1ccccc1)S(=O)(=O)c1cccc(C(=O)NCc2ccco2)c1 | inconclusive [cytotoxic, partial curve] | – |
| Cc1sc(NC(=O)CN(Cc2ccccc2)C(=O)C2CC2)c(C(N)=O)c1C | inactive | – |
| CCN(C(=O)C(C)OC(=O)c1nn(-c2ccccc2C(F)(F)F)cc1O)c1ccccc1 (stereo not drawn) | inactive | – |
| COc1ccc(C2CC(c3ccccc3)=NN2c2ccc(S(N)(=O)=O)cc2)cc1 (stereo not drawn) | inconclusive [cytotoxic, single point] | – |
| CCN1CCCC1CNC(=O)C1CCN(Cc2nc(-c3cccc(Br)c3)oc2C)CC1 (stereo not drawn) | inconclusive [cytotoxic, single point] | – |
| Cc1c(NC(=O)COC(=O)/C=C/c2cccc(F)c2)c(=O)n(-c2ccccc2)n1C | inactive | – |
| O=C(Nc1ccccc1C(=O)NCCCN1CCOCC1)c1ccc(F)cc1F | – | inconclusive: 22.2% |
| Cc1cc(SCC(=O)c2ccc(O)c(O)c2)nc2ccccc12 | inconclusive [cytotoxic, single point] | – |
| Cc1cc(C(=O)Cn2nc(C(=O)O)c3ccccc3c2=O)c(C)n1CCc1ccc(F)cc1 | inconclusive [cytotoxic, single point] | – |
| COc1ccc(CNS(=O)(=O)c2ccc3c(c2)CC(C)N3C(=O)C2CC2)cc1 (stereo not drawn) | inconclusive [cytotoxic, full curve, poor fit] | – |
| CSc1nc2[nH]c(=O)n(O)c(=O)c2n1Cc1ccccc1 | inconclusive [cytotoxic, single point] | – |
| CCc1nc2ccc(C(=O)NC3CCN(Cc4ccccc4)CC3)cn2c1N(CC)Cc1cccc(Br)c1 | active: 23.1 µM | – |
| CC(C)=CCc1c2c(c3occ(-c4ccc(O)cc4)c(=O)c3c1O)C=CC(C)(C)O2 | inconclusive [cytotoxic, single point] | – |
| CC1CCN(c2ccc(-c3cccc(NC(=O)C(F)(F)F)c3)nn2)CC1 | inconclusive [cytotoxic, partial curve] | – |
| COc1cc(/C=N/Nc2nc3ccccc3s2)ccc1OC(=O)c1ccccc1F | inconclusive [cytotoxic, single point] | – |
| O=C(Nc1ccc(N2CCOCC2)cc1)Nc1ccc2nc(-c3ccco3)c(-c3ccco3)nc2c1 | active: 5.01 µM | – |
| CCCOc1ccc(C(=O)NNC(=S)NC(=O)c2ccccc2)cc1 | inconclusive [cytotoxic, single point] | – |
| O=C(NCc1ccc(F)cc1)c1ccc(Br)o1 | inactive | – |
| c1ccc2c(c1)CCN(c1nc3cc4c(cc3s1)OCO4)C2 | inconclusive [cytotoxic, single point] | – |
